# Test results published in the supplement of paper PMC12217912.
# Some of the results follow. Sequences were assembled here from the parent chain. Values near 0.05 are background.
# B1: TEV protease; numbered along this chain (parent)
# chain: MGESLFKGPRDYNPISSSICHLTNESDGHTTSLYGIGFGPFIITNKHLFRRNNGTLVVQSLHGVFKVKDTTTLQQHLVDGRDMIIIRMPKDFPPFPQKLKFREPQREERICLVTTNFQTKSMSSMVSDTSCTFPSGDGIFWKHWIQTKDGQCGSPLVSTRDGFIVGIHSASNFTNTNNYFTSVPKNFMELLTNQEAQQWVSGWRLNADSVLWGGHKVFMVKPEEPFQPVKEATQL
# Variants of: B1
# Test: raw area under fraction-flipped curve 0-4 h after induction (AUC4h, not background-subtracted), DNA-recorder readout of cleavage of the substrate (dimensionless); higher = more cleavage of the substrate by the protease variant
# Settings: temperature: 34 °C; time window: 0-4 h after rhamnose induction
# Method: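 In vivo DNA recorder in E. coli TOP10(DE3) ΔrhaA at 34 °C. Each TEVp single-site mutant (parent TEVp 0) is paired with a single-site variant of the 7-mer TEVs (canonical ENLYFQ|S). The substrate sits between flexible linkers in a Bxb1-sfGFP-TEVs-SsrA fusion, so cleavage stabilises Bxb1 and speeds flipping of a recombination array, read by NGS. The value is the raw area under the fraction-flipped curve over 0-4 h after rhamnose induction (AUC4h), with ≥20 reads per time point. It is not background-subtracted; inactive controls average about 0.047.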
# 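Further: Bxb1 expression induced with 0.2% (w/v) L-rhamnose at OD600 near 0.5, cultures sampled hourly, flipped fraction per protease–substrate barcode pair counted by paired-end Illumina sequencing.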
Variant,area with substrate ENLAFQS,area with substrate ENLCFQS,area with substrate ENLDFQS,area with substrate ENLEFQS,area with substrate ENLFFQS,area with substrate ENLHFQS,area with substrate ENLIFQS,area with substrate ENLKFQS,area with substrate ENLLFQS,area with substrate ENLNFQS,area with substrate ENLPFQS,area with substrate ENLQFQS,area with substrate ENLWFQS,area with substrate ENLGFQS,area with substrate ENLRFQS,area with substrate ENLSFQS,area with substrate ENLVFQS,area with substrate ENLMFQS,area with substrate ENLTFQS
MGEGLFKGPRDYNPISSSICHLTNESDGHTTSLYGIGFGPFIITNKHLFRRNNGTLVVQSLHGVFKVKDTTTLQQHLVDGRDMIIIRMPKDFPPFPQKLKFREPQREERICLVTTNFQTKSMSSMVSDTSCTFPSGDGIFWKHWIQTKDGQCGSPLVSTRDGFIVGIHSASNFTNTNNYFTSVPKNFMELLTNQEAQQWVSGWRLNADSVLWGGHKVFMVKPEEPFQPVKEATQL [S4G],0.0509,0.0841,0.0586,0.062,0.102,0.075,0.0677,0.0904,0.0696,0.0651,0.0531,0.072,0.0756,,,,,,
MGEMLFKGPRDYNPISSSICHLTNESDGHTTSLYGIGFGPFIITNKHLFRRNNGTLVVQSLHGVFKVKDTTTLQQHLVDGRDMIIIRMPKDFPPFPQKLKFREPQREERICLVTTNFQTKSMSSMVSDTSCTFPSGDGIFWKHWIQTKDGQCGSPLVSTRDGFIVGIHSASNFTNTNNYFTSVPKNFMELLTNQEAQQWVSGWRLNADSVLWGGHKVFMVKPEEPFQPVKEATQL [S4M],0.062,,0.0606,0.0715,0.0857,0.0659,0.0906,0.0752,,0.0683,0.0649,,,0.0604,0.0685,0.0725,,,
MGENLFKGPRDYNPISSSICHLTNESDGHTTSLYGIGFGPFIITNKHLFRRNNGTLVVQSLHGVFKVKDTTTLQQHLVDGRDMIIIRMPKDFPPFPQKLKFREPQREERICLVTTNFQTKSMSSMVSDTSCTFPSGDGIFWKHWIQTKDGQCGSPLVSTRDGFIVGIHSASNFTNTNNYFTSVPKNFMELLTNQEAQQWVSGWRLNADSVLWGGHKVFMVKPEEPFQPVKEATQL [S4N],0.0651,,0.0745,0.0793,0.0646,0.0735,0.0623,0.0665,0.0647,0.117,0.051,,0.0948,,0.0863,0.0669,0.0928,,
MGESLHKGPRDYNPISSSICHLTNESDGHTTSLYGIGFGPFIITNKHLFRRNNGTLVVQSLHGVFKVKDTTTLQQHLVDGRDMIIIRMPKDFPPFPQKLKFREPQREERICLVTTNFQTKSMSSMVSDTSCTFPSGDGIFWKHWIQTKDGQCGSPLVSTRDGFIVGIHSASNFTNTNNYFTSVPKNFMELLTNQEAQQWVSGWRLNADSVLWGGHKVFMVKPEEPFQPVKEATQL [F6H],0.0547,,0.0707,0.0652,0.0593,,,0.0834,0.0789,,0.0549,0.08,0.0688,,,0.0814,,0.0907,
MGESLFKGPCDYNPISSSICHLTNESDGHTTSLYGIGFGPFIITNKHLFRRNNGTLVVQSLHGVFKVKDTTTLQQHLVDGRDMIIIRMPKDFPPFPQKLKFREPQREERICLVTTNFQTKSMSSMVSDTSCTFPSGDGIFWKHWIQTKDGQCGSPLVSTRDGFIVGIHSASNFTNTNNYFTSVPKNFMELLTNQEAQQWVSGWRLNADSVLWGGHKVFMVKPEEPFQPVKEATQL [R10C],0.0691,0.0628,0.0645,0.0565,0.0752,0.0696,,,0.0836,0.0623,0.0351,0.11,,,0.0653,0.054,,,
MGESLFKGPGDYNPISSSICHLTNESDGHTTSLYGIGFGPFIITNKHLFRRNNGTLVVQSLHGVFKVKDTTTLQQHLVDGRDMIIIRMPKDFPPFPQKLKFREPQREERICLVTTNFQTKSMSSMVSDTSCTFPSGDGIFWKHWIQTKDGQCGSPLVSTRDGFIVGIHSASNFTNTNNYFTSVPKNFMELLTNQEAQQWVSGWRLNADSVLWGGHKVFMVKPEEPFQPVKEATQL [R10G],0.0554,,0.048,0.0575,0.0798,0.0637,0.0841,0.0796,0.0667,0.066,0.0578,,0.059,,0.0809,0.062,0.101,0.0726,
MGESLFKGPPDYNPISSSICHLTNESDGHTTSLYGIGFGPFIITNKHLFRRNNGTLVVQSLHGVFKVKDTTTLQQHLVDGRDMIIIRMPKDFPPFPQKLKFREPQREERICLVTTNFQTKSMSSMVSDTSCTFPSGDGIFWKHWIQTKDGQCGSPLVSTRDGFIVGIHSASNFTNTNNYFTSVPKNFMELLTNQEAQQWVSGWRLNADSVLWGGHKVFMVKPEEPFQPVKEATQL [R10P],0.0802,0.0724,0.0659,0.0589,0.0726,0.0687,,0.0768,,0.0683,0.0484,0.053,0.0644,,0.0709,0.0647,,0.0728,
MGESLFKGPRAYNPISSSICHLTNESDGHTTSLYGIGFGPFIITNKHLFRRNNGTLVVQSLHGVFKVKDTTTLQQHLVDGRDMIIIRMPKDFPPFPQKLKFREPQREERICLVTTNFQTKSMSSMVSDTSCTFPSGDGIFWKHWIQTKDGQCGSPLVSTRDGFIVGIHSASNFTNTNNYFTSVPKNFMELLTNQEAQQWVSGWRLNADSVLWGGHKVFMVKPEEPFQPVKEATQL [D11A],0.0707,0.079,0.0663,0.0721,0.0906,0.0693,,0.0765,,0.0667,0.0671,0.0524,0.0621,,,0.066,0.0824,0.0711,
MGESLFKGPRLYNPISSSICHLTNESDGHTTSLYGIGFGPFIITNKHLFRRNNGTLVVQSLHGVFKVKDTTTLQQHLVDGRDMIIIRMPKDFPPFPQKLKFREPQREERICLVTTNFQTKSMSSMVSDTSCTFPSGDGIFWKHWIQTKDGQCGSPLVSTRDGFIVGIHSASNFTNTNNYFTSVPKNFMELLTNQEAQQWVSGWRLNADSVLWGGHKVFMVKPEEPFQPVKEATQL [D11L],0.0888,0.0739,0.0653,0.0651,0.0741,0.0627,0.0717,0.0677,0.0511,0.0505,0.0626,0.0704,0.0748,0.0662,0.0725,0.0672,0.0898,0.071,0.0714
